Molecules are shown by their SMILES. “And” between values parts separate entries of the source, which are not always exact repeats. Equal entries are not always repeated. About 40 (0.2%) of roughly 16,000 compounds were called active. About 1% were inconclusive and are not listed. Calls follow the shape of the dose curve; as a rule, active = well fitted activation curve with a large enough effect; inconclusive = small, poorly fitted or top-dose-only effect, or another doubt; inactive = no such curve, though single readings can be large or run the other way. This is one part of the list.
% is scaled to controls: 0 for no effect and ±100 for the full control effect.

Sequence of UniProt Q8WZA2 (Q8WZA2 whole entry, looked up): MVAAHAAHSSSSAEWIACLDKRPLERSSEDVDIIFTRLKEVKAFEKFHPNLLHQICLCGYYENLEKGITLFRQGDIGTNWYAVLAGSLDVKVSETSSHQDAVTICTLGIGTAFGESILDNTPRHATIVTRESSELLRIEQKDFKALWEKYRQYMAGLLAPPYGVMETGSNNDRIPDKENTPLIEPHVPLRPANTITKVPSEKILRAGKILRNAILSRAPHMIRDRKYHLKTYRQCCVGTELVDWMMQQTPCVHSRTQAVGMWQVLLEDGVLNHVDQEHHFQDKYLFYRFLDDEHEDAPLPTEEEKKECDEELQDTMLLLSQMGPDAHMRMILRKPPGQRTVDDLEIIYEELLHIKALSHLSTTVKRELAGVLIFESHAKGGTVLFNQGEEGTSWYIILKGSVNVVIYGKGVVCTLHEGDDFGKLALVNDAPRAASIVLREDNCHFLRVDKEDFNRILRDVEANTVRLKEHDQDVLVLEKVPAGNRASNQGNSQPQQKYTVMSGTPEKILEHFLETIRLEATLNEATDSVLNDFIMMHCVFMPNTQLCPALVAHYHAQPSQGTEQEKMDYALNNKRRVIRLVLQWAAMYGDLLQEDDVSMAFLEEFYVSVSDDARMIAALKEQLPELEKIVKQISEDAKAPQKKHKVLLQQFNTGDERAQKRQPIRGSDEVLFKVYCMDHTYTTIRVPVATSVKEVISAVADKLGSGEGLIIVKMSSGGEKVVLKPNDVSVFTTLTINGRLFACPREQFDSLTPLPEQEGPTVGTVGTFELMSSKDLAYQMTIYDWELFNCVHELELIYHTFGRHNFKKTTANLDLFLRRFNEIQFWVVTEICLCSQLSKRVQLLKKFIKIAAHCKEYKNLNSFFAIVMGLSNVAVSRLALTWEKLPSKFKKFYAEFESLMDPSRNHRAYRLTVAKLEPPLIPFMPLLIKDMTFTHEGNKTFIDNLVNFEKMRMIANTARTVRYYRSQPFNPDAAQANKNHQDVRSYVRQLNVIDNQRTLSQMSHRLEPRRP

For this experiment, the target named is Rap guanine nucleotide exchange factor 4 (Homo sapiens) (UniProt Q8WZA2). Kind of experiment: Validation qHTS for agonist of cAMP-regulated guanine nucleotide exchange factor 4 (EPAC2).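 Also: exchange makes BODIPY-GDP fluorescence drop when released from Rap1B; series mostly up to about 150 µM.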 To be noted: EPAC2 Rap1B BODIPY-GDP exchange, fluorescence; activation: hits give high values. The essentials:
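Fluorescent exchange assay: 100 nM EPAC2 with 250 nM RAP1B-BODIPY-GDP and 50 uM GDP; compound added, 5 min at room temperature, then read (ex 480/em 540 nm) every 5 min for 30 min. Normalized to 6.5 mM cAMP agonist control.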
Regarding `CCc1cc(OC)c(C[C@H](C)N)cc1OC`, the activation was inactive: -9.87%.

For `c1ccc(CCN2CCOCC2)cc1`, the activation is inactive: -17.4%.

In the case of `N[C@@]1(C(=O)O)CC[C@@H](C(=O)O)C1`, the activation was inactive: -0.968%.

For `Cn1cc(C(=O)C(=O)N[C@H]2CN3CCC2CC3)c2ccccc21`, the activation was inactive: 9.38%.

Regarding `C[C@@H]1OC(=O)[C@H]2C[C@H]3CCCC[C@@H]3[C@@H](/C=C/[C@H]3CCC[C@H](C)N3C)[C@@H]12`, the activation was inactive: -5.19%.

In the case of `CNC(C)Cc1ccc2c(c1)OCO2` (stereo not given), the activation is inactive: -4.47%.

In the case of `COc1ccc(/C=C/C(=O)N2CC3C[C@@H](C2)Cn2c3cccc2=O)cc1OC`, the activation is inactive: -1.01%.

On to `COc1ccc(CC2NC[C@H](O)[C@H]2OC(C)=O)cc1` (stereo not given in full), for which the activation was inactive: -7.96%.

With `Cc1nc2ccccc2c(=O)n1-c1ccccc1Cl`, the activation is inactive: 1.61%.

On to `CC[C@H](C)[C@H](NC(=O)[C@H](CCCN=C(N)N)NC(=O)[C@H](CCCN=C(N)N)NC(=O)[C@H](CC(C)C)NC(=O)[C@H](Cc1ccccc1)NC(=O)CNC(=O)CNC(=O)[C@@H](N)Cc1ccc(O)cc1)C(=O)O`, for which the activation is inactive: -4.82%.

Consider `CCCCC/C=C\C[C@@H](/C=C/C=C\C/C=C\CCCC(=O)O)OO`, for which the activation was inactive: -4.4%.

`O=C1CS[C@@H](c2ccccc2Cl)c2cc(Cl)ccc2N1`: the activation is inactive: -16.9%.

For the compound `CCN(CC)Cc1nccn1-c1ccc([N+](=O)[O-])cc1C(=O)c1ccccc1Cl`, the activation was inactive: -11.5%.

Take `[N-]=[N+]=CC(=O)OC[C@H](N)C(=O)O`: the activation is inactive: -20.4%.

Regarding `C[C@@H](N)Cn1ccc2cc(F)c(Cl)cc21`, the activation was inactive: -2.18%.

Take `C#CCN1C(C)=C(C(=O)CCO)[C@@H](c2cccc(-n3oo3)c2)C(C(=O)OC)=C1C`: the activation is inactive: 4.89%.

Regarding `Cc1nc(N)sc1CCN`, the activation was inactive: -16.9% and inactive: 2.66%.

As for `O=C(O)CCCCCCNC1c2ccccc2CCc2ccccc21`, the activation was inactive: -1.72%.

As for `COP(=S)(OC)Oc1ccc(S(N)(=O)=O)cc1`, the activation is inactive: 9.2%.

On to `NCCCC[C@H](NC(=O)[C@H](Cc1ccccc1)NC(=O)[C@H](CCCN=C(N)N)NC(=O)[C@@H](N)Cc1ccc(O)cc1)C(N)=O`, for which the activation is inactive: -9.46%.

Take `NCCCP(=O)(O)CC1CCCCC1`: the activation was inactive: -10.2% and inactive: 10%.

In the case of `COc1cc(CCN)cc(OC)c1OC`, the activation was inactive: -5.03%.

As to `COc1cccc2c1C13CC[N+]4(CC5CC5)CO[C@]1(CCC(=O)C3)C4C2`, the activation is inactive: 3.83%.

In the case of `CCCN1CCO[C@@H]2c3cc(O)ccc3OC[C@@H]21`, the activation is inactive: -4.23%.

On to `C[C@@H]1O[C@@H](O[C@H]2C[C@@H](O)[C@]3(CO)[C@H]4[C@H](O)C[C@]5(C)[C@@H](C6=CC(=O)OC6)CC[C@]5(O)[C@@H]4CC[C@]3(O)C2)[C@H](O)[C@H](O)[C@H]1O`, for which the activation is inactive: -13% and inactive: -19.3% and inactive: -25.1%.

The record behind these values is PubChem BioAssay AID1645887 (National Center for Advancing Translational Sciences (NCATS), 2021).
